# Results published in patent publication US5166348A, “Bornyl and isobornyl esters of carboxylic acids of condensed tetrahydroquinoxalines” (Uralsky politekhnichesky institut, priority 1989, dated 1992).
# Values joined by “and” are separate entries in the source; they are usually repeats but may differ in a detail not shown here. Equal entries are not always repeated. Where two headings read alike, the source gives them in different places.
# Experiments:
# influenza virus A and B = assay: antiviral activity against influenza virus A and B (chick embryos and albino mice), summary
# influenza virus = settings: neonates of infected females
# influenza virus A = settings: for % of diseased mice and died mice / Efficiency, % / Elongation of animal life in test group (compared with control) / Mean Incubation / Protection factor / % of diseased mice and of died mice / Elongation of animals life in test group compared with control / Mean incubation period / Factor of reduction of number of diseased mice (protection factor): influenza virus A; for Factor of reduction of number of diseased mice (protection factor): compared with control
# viruses = assay: spectrum of antiviral activity, summary; settings: listed as drawing 6
# [1] = 1 mg/mouse, 24 hours and 1 hour before and 24, 48 and 72 hours after infection
SMILES,efficiency against influenza viruses A and B (influenza virus A and B; influenza viruses A and B),"antiviral activity against influenza viruses A and B (in words) (influenza virus A and B; mouse, in vivo, listed as drawing 6)",mortality in the control group of young mice compared with the treated group (in words) (influenza virus),% of diseased mice and died mice (influenza virus A; [1]) [%],"Efficiency, % (influenza virus A; [1]) [%]",Elongation of animal life in test group (compared with control) (influenza virus A; [1]) [days],Mean Incubation (influenza virus A; [1]),Protection factor (influenza virus A; [1]),"% of diseased mice and of died mice (influenza virus A; per os, 1 mg per animal)","Efficiency, % (influenza virus A; per os, 1 mg per animal)","Elongation of animals life in test group compared with control (influenza virus A; per os, 1 mg per animal)","Mean incubation period (influenza virus A; per os, 1 mg per animal)","Factor of reduction of number of diseased mice (protection factor) (influenza virus A; per os, 1 mg per animal)","Minimum effective dose against influenza viruses, type A (influenza virus A; influenza virus type A) [mg/mouse]","activity against influenza virus A (in words) (influenza virus A; mouse, in vivo)",spectrum of antiviral activity (in words) (viruses),"Chemotherapeutic index for influenza viruses, type A (influenza virus A; influenza virus type A, toxicity vs minimum effective dose)"
"CC1=C(C(=O)OC2CC3CCC2(C)C3(C)C)C2Nc3ccccc3N(C)C2O1 (centres unmarked) [compound 1a, isobornyl ester of 2,9-dimethyl-3a,4,9,9a-tetrahydrofuro [2,3-b] quinoxaline-3-carboxylic acid]",60-70%,most active compound,much higher,27,64,1.6,9.7,2.8,27%,64%,1.6 days,9.7 days,2.8,0.2,Lower activity,"highly active against tick-borne encephalitis virus, epidemic strains of influenza virus A, B and C resistant to remantadine, and also against the agent causing respiratory syncytial infection",
"CCN1c2ccccc2NC2C(C(=O)OC3CC4CCC3(C)C4(C)C)=C(C)OC21 (centres unmarked) [compound 1b, isobornyl ester of 2-methyl-9-ethyl-3a,4,9,9a-tetrahydrofuro [2,3-b] quinoxaline-3-carboxylic acid]",,,,,,,,,47%,37%,2.1 days,9.2 days,1.6,,,,
"CCN1c2ccccc2NC2C(C(=O)OC3CC4CCC3(C)C4(C)C)=C(C)OC21 (centres unmarked) [compound 1c, bornyl-2-methyl-9-ethyl-3a,4,9,9a-tetrahydrofuro [2,3-b] quinoxaline-3-carboxylate]",,,,,,,,,43%,37%,1.0 days,10.0 days,1.6,,,,
"CC(N)C12CC3CC(CC(C3)C1)C2 (centres unmarked) [remantadine, reference compound]",,,,13,83,2.8,10.0,6.0,15% and 13% and 5%,85% and 83% and 93%,4.0 days and 2.7 days and 2.8 days,11.7 days and 10.0 days,14.6 and 6.0,0.1,,,60
